Measurements reported in PubChem BioAssay AID1460 (National Center for Advancing Translational Sciences (NCATS), 2008).
Where “and” joins values, the source holds several entries; their conditions need not be identical. Equal entries are not always repeated. Out of some 270,000 compounds screened, about 5,800 (2.1%) were called active. The shares of active, inactive and inconclusive entries below differ from those in the screen. The call rests on the fitted dose curve; in most records, active means well fitted inhibition curve with a large enough effect; inconclusive means small, poorly fitted or top-dose-only effect; inactive means flat fitted curve, though single readings scatter. A potency beside an inconclusive call is a rough fit, not a confirmed value.
Further: nearly all actives have a fitted effect of over 55% in size.
Potency means the concentration at half of the fitted maximal effect; tags describe the fitted curve by direction and shape.

These molecules were tested against Microtubule-associated protein tau (Homo sapiens) (UniProt P10636) (assay: qHTS for Inhibitors of Tau Fibril Formation, Thioflavin T Binding). Conditions: recombinant tau K18 P301L, heparin-induced fibrillization, ThT fluorescence; series mostly up to 57.4 µM.
Sequence of UniProt P10636 (P10636 whole entry, looked up): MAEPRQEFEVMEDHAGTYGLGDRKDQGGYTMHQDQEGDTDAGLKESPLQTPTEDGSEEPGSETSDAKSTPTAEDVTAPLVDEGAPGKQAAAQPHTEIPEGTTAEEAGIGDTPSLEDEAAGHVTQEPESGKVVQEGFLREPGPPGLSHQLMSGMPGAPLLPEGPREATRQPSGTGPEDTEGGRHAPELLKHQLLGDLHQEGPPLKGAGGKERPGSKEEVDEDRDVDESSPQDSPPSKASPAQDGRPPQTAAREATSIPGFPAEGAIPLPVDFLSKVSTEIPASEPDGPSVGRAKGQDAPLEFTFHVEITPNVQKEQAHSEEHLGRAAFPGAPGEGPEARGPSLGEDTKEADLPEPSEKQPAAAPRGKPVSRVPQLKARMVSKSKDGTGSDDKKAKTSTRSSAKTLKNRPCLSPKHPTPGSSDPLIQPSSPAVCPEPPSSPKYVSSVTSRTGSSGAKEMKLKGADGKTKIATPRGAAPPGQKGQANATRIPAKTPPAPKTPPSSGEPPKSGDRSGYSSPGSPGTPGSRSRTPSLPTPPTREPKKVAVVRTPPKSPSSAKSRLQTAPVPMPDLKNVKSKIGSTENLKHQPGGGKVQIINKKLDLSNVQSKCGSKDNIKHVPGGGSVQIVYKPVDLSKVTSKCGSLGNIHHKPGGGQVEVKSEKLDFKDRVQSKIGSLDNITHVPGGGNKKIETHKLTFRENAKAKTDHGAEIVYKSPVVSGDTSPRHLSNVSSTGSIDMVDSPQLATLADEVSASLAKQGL
Outline: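 ThT emission at 510 nm, taken 1 hr after adding 30 uM dye, quantifies aggregates formed when 20 uM heparin acts on human tau K18 P301L for 6 hr at 37 C.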
With `CCN(CC)Cc1c(NC(=O)c2ccc(OC)cc2)sc2c1CCCC2` the Potency was inconclusive: 25.1 µM [inhibitor, partial curve].
With `CCCCOc1ccc(C(=O)Nc2ccc(N3CCN(C)CC3)cc2)cc1` the Potency was inconclusive: 14.1 µM [inhibitor, partial curve].
For `Cn1c(-c2ccc(=O)[nH]c2)nc2ccccc21`, the Potency was inconclusive: 39.8 µM [inhibitor, single point].
In the case of `CC(C)CCNC(=O)CCn1c(=O)c2cccn2c2cccnc21`, the Potency is reported as “inactive”.
For `COc1ccc(/C=N/Nc2nc3ccccc3s2)cc1O`, the Potency was active: 12.6 µM.
For `O=C(Cn1c2ccccc2c(=O)c2ccccc21)N/N=C/c1ccc(N2CCCC2)c([N+](=O)[O-])c1`, the Potency was “inactive”.
`O=C(c1ccncc1)c1ccc(N2CCN(C3CC(=O)N(Cc4cccs4)C3=O)CC2)cc1` (configuration not stated) was tested, and the Potency was inconclusive: 31.6 µM [inhibitor, single point].
`O=C(Nc1ccc(Cl)cc1)/C(=C/c1cccc(O)c1)c1nc2ccccc2s1` was tested, and the Potency was active: 20 µM.
For `Cn1c(=S)c2[nH]c(SCCN3CCCC3)nc2n(C)c1=O`, the Potency was “inactive”.
With `CCOc1ccc(NC(=O)N(Cc2c[nH]c3ccccc23)C2CCCCCC2)cc1` the Potency was “inactive”.
In the case of `Clc1ccc(OCCCc2nc(-c3ccncc3)no2)c(Cl)c1`, the Potency is reported as inconclusive: 11.2 µM [inhibitor, partial curve].
In the case of `COc1ccc(-c2nnc3n(CCc4ccccc4)c(=O)c4ccccc4n23)cc1OC`, the Potency is reported as inconclusive: 14.1 µM [inhibitor, partial curve].
In the case of `CSc1ccc(C2c3c(oc4cc(C)cc(C)c4c3=O)C(=O)N2CCO)cc1` (configuration not stated), the Potency is reported as “inactive”.
`Cc1cc(C)n(-c2nnc(NC34CC5CC(CC(C5)C3)C4)nn2)n1` was tested, and the Potency was inconclusive: 31.6 µM [inhibitor, partial curve].
In the case of `Cc1cc(NCCCN2CCOCC2)n2ncc(-c3ccc(Cl)cc3)c2n1`, the Potency is reported as inconclusive: 14.1 µM [inhibitor, partial curve].
With `O=C(Nc1cccc(NC(=O)c2nccc3ccccc23)c1)c1ccco1` the Potency was inconclusive: 28.2 µM [inhibitor, partial curve].
`Cc1ccc(NC(=O)c2cc3c(=O)n(Cc4ccco4)ccc3nc2C)cc1C` was tested, and the Potency was inconclusive: 28.2 µM [inhibitor, single point].
In the case of `OC1CN=C2CCCc3c2n(c2ccc(Cl)cc32)C1` (configuration not stated), the Potency is reported as inconclusive: 25.1 µM [inhibitor, partial curve].
With `COc1ccccc1C(=O)Nc1ccc2c(c1)OCCO2` the Potency was inconclusive: 10 µM [inhibitor, partial curve, poor fit].
`COc1ccc2[nH]c(C)c(C(=O)CN3CCN(C(=O)c4ccco4)CC3)c2c1` was tested, and the Potency was inconclusive: 3.55 µM [inhibitor, partial curve].
For `Cc1nnc2n(c1=O)N=C(c1ccc(Cl)cc1)CS2`, the Potency was inconclusive: 15.8 µM [inhibitor, partial curve].
For `O=C(CN1C(=O)NC2(CCCC2)C1=O)Nc1ccccc1F`, the Potency was “inactive”.
`O=C(CSc1nc2c([nH]c3ccccc32)c(=O)n1-c1ccccc1)Nc1ccc(Cl)c(Cl)c1` was tested, and the Potency was inconclusive: 0.0501 µM [activator, full curve, poor fit].
In the case of `CCOc1ccc(/C(CC)=N/NC(=O)C2(C)CC2(Br)Br)cc1` (configuration not stated), the Potency is reported as inconclusive: 25.1 µM [inhibitor, single point].
`Cc1cccc(OCc2nnc(SCC(=O)c3cccs3)n2C)c1C` was tested, and the Potency was inconclusive: 11.2 µM [inhibitor, partial curve].
For `Cc1cc(C2=NNC(=NCc3ccccc3)SC2)c(C)n1-c1c(C)n(C)n(-c2ccccc2)c1=O`, the Potency was inconclusive: 17.8 µM [inhibitor, partial curve].
With `CCOC(=O)/C(=C/C=C1\Sc2cc(OCC)c(OCC)cc2N1CC)C(C)=O` the Potency was inconclusive: 20 µM [inhibitor, partial curve].
With `CCOC(=O)N1CCC(=NNc2ccnc3cc(Cl)ccc23)CC1` the Potency was inconclusive: 25.1 µM [inhibitor, partial curve].
In the case of `COc1ccc(-c2noc(-c3ccc(NCC4CCCO4)c([N+](=O)[O-])c3)n2)cc1` (configuration not stated), the Potency is reported as inconclusive: 0.0251 µM [activator, full curve, poor fit].
`CNC(=O)c1c(NC(=O)Cc2coc3ccc(C)cc23)sc2c1CCCC2` was tested, and the Potency was inconclusive: 12.6 µM [inhibitor, partial curve].
For `COc1ccc(-c2cc(OC(=O)c3cccc(Cl)c3)c3c(C)oc(C)c3c(=O)c2)cc1`, the Potency was inconclusive: 11.2 µM [inhibitor, partial curve, poor fit].
In the case of `C[C@H](O)CC1=C[C@H](O)[C@@H](C)OC1=O`, the Potency is reported as “inactive”.
In the case of `COc1cc(NC(=O)N2CCC3(CC2)Nc2ccccc2-n2cccc23)cc(OC)c1OC`, the Potency is reported as inconclusive: 20 µM [inhibitor, single point].
With `CCc1cccc2[nH]c3cc([N+](=O)[O-])ccc3c12` the Potency was inconclusive: 2.24 µM [inhibitor, full curve].
For `COc1ccc(CC(=O)N2CCN=C2SCc2cccc([N+](=O)[O-])c2)cc1`, the Potency was inconclusive: 11.2 µM [inhibitor, partial curve].
`CC(C)(C)c1ccc(C(=O)Nc2sc3c(c2C(=O)O)CCC3)cc1` was tested, and the Potency was active: 14.1 µM.
With `O=C(O)c1ccc2c(c1)C(=O)N(C(Cc1ccc(O)cc1)C(=O)O)C2=O` (configuration not stated) the Potency was “inactive”.
In the case of `O=C(CCCN1C(=O)/C(=C/c2cccs2)SC1=S)Nc1ccc(O)c(C(=O)O)c1`, the Potency is reported as active: 8.91 µM.
In the case of `Cc1ccc(C(=O)NC(=S)Nc2ccc3c(c2)OCCO3)c(C)c1`, the Potency is reported as inconclusive: 5.62 µM [inhibitor, partial curve].
`COc1ccc(CCNC(=O)Cn2cc(S(=O)(=O)Cc3ccccc3Cl)c3ccccc32)cc1OC` was tested, and the Potency was “inactive”.
For `CCOc1ccccc1NC(=O)CSc1ncc(S(=O)(=O)c2ccc(C)c(C)c2)c(N)n1`, the Potency was “inactive”.
`Cc1nc2scc(-c3ccco3)c2c(=O)n1/N=C/N(C)C` was tested, and the Potency was inconclusive: 12.6 µM [inhibitor, single point].
In the case of `COc1ccc(NC(=S)NNS(=O)(=O)c2ccc3ccccc3c2)c(OC)c1`, the Potency is reported as inconclusive: 14.1 µM [inhibitor, single point].
In the case of `CCOC(=O)N1CC=C2C(C#N)=C(N)C(C#N)(C#N)[C@H](c3ccccc3OCC)[C@H]2C1`, the Potency is reported as “inactive”.
In the case of `CCC1=Nc2cc(C(=O)NCc3ccco3)ccc2Sc2ccc(Cl)cc21`, the Potency is reported as inconclusive: 44.7 µM [inhibitor, single point].
For `CC1(C)Cc2c(sc3[nH]c(=S)n(Cc4ccccc4)c(=O)c23)CO1`, the Potency was inconclusive: 35.5 µM [inhibitor, partial curve, poor fit].
In the case of `CCCCc1ccc(/C=C(\C#N)C(N)=S)s1`, the Potency is reported as inconclusive: 11.2 µM [inhibitor, partial curve].
With `CC(C)(C)c1cc(O)c(C(C)(C)C)cc1O` the Potency was inconclusive: 15.8 µM [inhibitor, partial curve] and inconclusive: 17.8 µM [inhibitor, partial curve, poor fit].
`CC(C)c1ccccc1S(=O)(=O)c1cc(N)c2ncccc2c1[N+](=O)[O-]` was tested, and the Potency was inconclusive: 3.16 µM [inhibitor, full curve].
`O=C(Nc1cccc(-c2nc3cccnc3s2)c1)c1cccc(Br)c1` was tested, and the Potency was inconclusive: 31.6 µM [inhibitor, partial curve].
With `CCOC(=O)c1ccc(NC(=O)c2cn(-c3ccccc3)nc2-c2ccc(OC)c(OC)c2)cc1` the Potency was inconclusive: 3.98 µM [inhibitor, single point].
`CCOC(=O)c1c(C)oc2c1c(CN1CCN(CCO)CC1)c(O)c1ccccc12` was tested, and the Potency was inconclusive: 15.8 µM [inhibitor, partial curve].
In the case of `Cn1cccc1-c1nc2ccccc2n1Cc1ccccc1`, the Potency is reported as inconclusive: 12.6 µM [inhibitor, partial curve].
For `Cc1cn2c(=O)c(S(=O)(=O)N3CCN(c4cc(Cl)ccc4C)CC3)c(C)nc2s1`, the Potency was “inactive”.
With `O=c1cc(CSc2ccc([N+](=O)[O-])cc2)nc2sccn12` the Potency was inconclusive: 10 µM [inhibitor, partial curve].
In the case of `COCCNc1nc2c(c(=O)n(C)c(=O)n2C)n1Cc1cccc(C(F)(F)F)c1`, the Potency is reported as “inactive”.
For `O=C(c1ccc(F)cc1)n1nc(-c2cccnc2)nc1NCc1ccc(F)cc1`, the Potency was inconclusive: 14.1 µM [inhibitor, partial curve].
With `Cc1nc(-c2ccc(S(=O)(=O)N3CCN(c4cc(Cl)ccc4C)CC3)cc2)co1` the Potency was “inactive”.
For `CCC(=O)N=c1ccn(C2=Nc3ccccc3NC2=C(C#N)C#N)cc1`, the Potency was inconclusive: 17.8 µM [inhibitor, single point].
In the case of `O=C(COc1ccc2ccccc2c1)NC1CC(=O)N(c2ccccc2)C1` (configuration not stated), the Potency is reported as “inactive”.
For `COc1ccc(C2CCCN2C(=S)Nc2ccc(C)cc2Cl)cc1OC` (configuration not stated), the Potency was inconclusive: 28.2 µM [inhibitor, partial curve, poor fit].
`Cc1cccc(CC(=O)Nc2cc(C)c3c(=O)oc4ccccc4c3n2)c1` was tested, and the Potency was “inactive”.
With `CC(=O)Nc1ccc(S(=O)(=O)Oc2ccc(C(=S)N3CCCCC3)cc2)cc1` the Potency was “inactive”.
`O=C(/C=C/c1c(Cl)nc2ccccn12)N1CCN(c2ccc(F)cc2)CC1` was tested, and the Potency was inconclusive: 25.1 µM [inhibitor, partial curve].
For `CN(C)c1ccc(C2NCCS2)cc1` (configuration not stated), the Potency was active: 28.2 µM.
With `O=C(CSc1ccc(-c2ccccn2)nn1)c1ccc([N+](=O)[O-])cc1` the Potency was active: 15.8 µM.
For `O=C(CSc1c2c(nc3cc(Cl)ccc13)CCCC2)N1CCN(c2ccccc2F)CC1`, the Potency was inconclusive: 8.91 µM [inhibitor, partial curve].
